# From the supplement of paper PMC8728848
# The list shows a part of the results.
# B1: rAAL-I144G (Agrocybe aegerita), Q6WY08 (protein)
# chain: MQGVNIYNISAGTSVDLAAPVTTGDIVTFFSSALNLNAGAGNPNNTTLNLFAENGAYLLHIAFRLQENVIIFNSRQPDGPWLVEQRVSDVANQFAGIDGKAMVTVFDHGDKYQVVINEKTVIQYTKQISGLTLSLSYNATEETSGFSTVVEAVTYTGLALEHHHHHH
# Assays:
# Assay in all cases: glycan array binding signal (z-score within array); higher = stronger binding
# Conditions in all cases: glycan notation: IUPAC condensed, linker removed; mutation: I144G
# [1] = target: Gal(b1-4)GlcNAc(b1-3)Gal(b1-4)GlcNAc(b1-3)Gal(b1-4)GlcNAc(b1-3)Gal(b1-4)GlcNAc(b1-2)Man(a1-3)[Gal(b1-4)GlcNAc(b1-3)Gal(b1-4)GlcNAc(b1-3)Gal(b1-4)GlcNAc(b1-3)Gal(b1-4)GlcNAc(b1-2)Man(a1-6)]Man(b1-4)GlcNAc(b1-4)GlcNAc
# In short: (§1)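 The binding signal is a Z-score computed within each array and averaged over linkers. Arrays of the same protein sequence at different concentrations or buffers were also averaged together. Data originate from 3228 arrays in the Consortium for Functional Glycomics database, kept only where the protein sequence was available.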
# [2] = target: Gal(b1-4)GlcNAc(b1-3)Gal(b1-4)GlcNAc(b1-3)Gal(b1-4)GlcNAc(b1-3)Gal(b1-4)GlcNAc(b1-2)Man(a1-3)[Gal(b1-4)GlcNAc(b1-3)Gal(b1-4)GlcNAc(b1-3)Gal(b1-4)GlcNAc(b1-3)Gal(b1-4)GlcNAc(b1-2)Man(a1-6)]Man(b1-4)GlcNAc(b1-4)[Fuc(a1-6)]GlcNAc
# In short: as §1
# [3] = target: Gal(b1-4)GlcNAc(b1-3)Gal(b1-4)GlcNAc(b1-3)Gal(b1-4)GlcNAc(b1-3)Gal(b1-4)GlcNAc(b1-2)[Gal(b1-4)GlcNAc(b1-3)Gal(b1-4)GlcNAc(b1-3)Gal(b1-4)GlcNAc(b1-3)Gal(b1-4)GlcNAc(b1-6)]Man(a1-6)[Gal(b1-4)GlcNAc(b1-3)Gal(b1-4)GlcNAc(b1-3)Gal(b1-4)GlcNAc(b1-3)Gal(b1-4)GlcNAc(b1-2)Man(a1-3)]Man(b1-4)GlcNAc(b1-4)[Fuc(a1-6)]GlcNAc
# In short: as §1
# [4] = target: Gal(b1-4)GlcNAc(b1-3)Gal(b1-4)GlcNAc(b1-3)Gal(b1-4)GlcNAc(b1-3)Gal(b1-4)GlcNAc(b1-3)Gal(b1-4)GlcNAc(b1-2)Man(a1-3)[Gal(b1-4)GlcNAc(b1-3)Gal(b1-4)GlcNAc(b1-3)Gal(b1-4)GlcNAc(b1-3)Gal(b1-4)GlcNAc(b1-3)Gal(b1-4)GlcNAc(b1-2)Man(a1-6)]Man(b1-4)GlcNAc(b1-4)GlcNAc
# In short: as §1
# [5] = target: Gal(b1-4)GlcNAc(b1-3)Gal(b1-4)GlcNAc(b1-3)Gal(b1-4)GlcNAc(b1-3)Gal(b1-4)GlcNAc(b1-3)Gal(b1-4)GlcNAc(b1-2)Man(a1-3)[Gal(b1-4)GlcNAc(b1-3)Gal(b1-4)GlcNAc(b1-3)Gal(b1-4)GlcNAc(b1-3)Gal(b1-4)GlcNAc(b1-3)Gal(b1-4)GlcNAc(b1-2)Man(a1-6)]Man(b1-4)GlcNAc(b1-4)[Fuc(a1-6)]GlcNAc
# In short: as §1
# [6] = target: Gal(b1-4)GlcNAc(b1-3)Gal(b1-4)GlcNAc(b1-3)Gal(b1-4)GlcNAc(b1-3)Gal(b1-4)GlcNAc(b1-3)Gal(b1-4)GlcNAc(b1-2)[Gal(b1-4)GlcNAc(b1-3)Gal(b1-4)GlcNAc(b1-3)Gal(b1-4)GlcNAc(b1-3)Gal(b1-4)GlcNAc(b1-3)Gal(b1-4)GlcNAc(b1-6)]Man(a1-6)[Gal(b1-4)GlcNAc(b1-3)Gal(b1-4)GlcNAc(b1-3)Gal(b1-4)GlcNAc(b1-3)Gal(b1-4)GlcNAc(b1-3)Gal(b1-4)GlcNAc(b1-2)Man(a1-3)]Man(b1-4)GlcNAc(b1-4)[Fuc(a1-6)]GlcNAc
# In short: as §1
# [7] = target: Gal(b1-4)GlcNAc(b1-3)Gal(b1-4)GlcNAc(b1-3)Gal(b1-4)GlcNAc(b1-3)Gal(b1-4)GlcNAc(b1-3)Gal(b1-4)GlcNAc(b1-3)Gal(b1-4)GlcNAc(b1-2)Man(a1-3)[Gal(b1-4)GlcNAc(b1-3)Gal(b1-4)GlcNAc(b1-3)Gal(b1-4)GlcNAc(b1-3)Gal(b1-4)GlcNAc(b1-3)Gal(b1-4)GlcNAc(b1-3)Gal(b1-4)GlcNAc(b1-2)Man(a1-6)]Man(b1-4)GlcNAc(b1-4)GlcNAc
# In short: as §1
# [8] = target: Gal(b1-4)GlcNAc(b1-3)Gal(b1-4)GlcNAc(b1-3)GalNAc
# In short: as §1
# [9] = target: Gal(b1-4)GlcNAc(b1-3)Gal(b1-4)GlcNAc(b1-3)[Gal(b1-4)GlcNAc(b1-3)Gal(b1-4)GlcNAc(b1-6)]GalNAc
# In short: as §1
# [10] = target: Gal(b1-4)GlcNAc(b1-3)Gal(b1-4)GlcNAc(b1-6)[Gal(b1-3)]GalNAc
# In short: as §1
# [11] = target: Gal(b1-4)GlcNAc(b1-3)Gal(b1-4)[Fuc(a1-3)]GlcNAc(b1-3)Gal(b1-4)[Fuc(a1-3)]GlcNAc
# In short: as §1
# [12] = target: Gal(b1-4)GlcNAc(b1-3)GalNAc
# In short: as §1
# [13] = target: Gal(b1-4)GlcNAc(b1-3)[Fuc(a1-3)GlcNAc(b1-6)]Gal(b1-4)Glc
# In short: as §1
# [14] = target: Gal(b1-4)GlcNAc(b1-3)[Gal(b1-4)GlcNAc(b1-6)]Gal(b1-4)GlcNAc
# In short: as §1
# [15] = target: Gal(b1-4)GlcNAc(b1-3)[GlcNAc(b1-6)]Gal(b1-4)GlcNAc
# In short: as §1
# [16] = target: Gal(b1-4)GlcNAc(b1-6)Gal(b1-4)GlcNAc
# In short: as §1
# [17] = target: Gal(b1-4)GlcNAc(b1-6)GalNAc
# In short: as §1
# [18] = target: Gal(b1-4)GlcNAc(b1-6)[Gal(b1-3)]GalNAc
# In short: as §1
# [19] = target: Gal(b1-4)GlcNAc(b1-6)[Gal(b1-4)GlcNAc(b1-3)]GalNAc
# In short: as §1
# Gal(b1-4)GlcNAc6P = target: Gal(b1-4)GlcNAc6P
# In short: as §1
# Gal(b1-6)Gal = target: Gal(b1-6)Gal
# In short: as §1
# Gal3S(b1-3)GalNAc = target: Gal3S(b1-3)GalNAc
# In short: as §1
# Gal3S(b1-3)GlcNAc = target: Gal3S(b1-3)GlcNAc
# In short: as §1
binder,measurement,setting,value
B1,glycan array binding signal (z-score),[1],-0.129
same,glycan array binding signal (z-score),[2],-0.063
same,glycan array binding signal (z-score),[3],-0.077
same,glycan array binding signal (z-score),[4],-0.082
same,glycan array binding signal (z-score),[5],-0.125
same,glycan array binding signal (z-score),[6],0.008
same,glycan array binding signal (z-score),[7],-0.04
same,glycan array binding signal (z-score),[8],-0.054
same,glycan array binding signal (z-score),[9],-0.018
same,glycan array binding signal (z-score),[10],-0.066
same,glycan array binding signal (z-score),[11],-0.165
same,glycan array binding signal (z-score),[12],-0.144
same,glycan array binding signal (z-score),[13],-0.055
same,glycan array binding signal (z-score),[14],-0.192
same,glycan array binding signal (z-score),[15],-0.214
same,glycan array binding signal (z-score),[16],-0.152
same,glycan array binding signal (z-score),[17],-0.131
same,glycan array binding signal (z-score),[18],-0.14
same,glycan array binding signal (z-score),[19],-0.177
same,glycan array binding signal (z-score),Gal(b1-4)GlcNAc6P,-0.201
same,glycan array binding signal (z-score),Gal(b1-6)Gal,-0.193
same,glycan array binding signal (z-score),Gal3S(b1-3)GalNAc,17.3
same,glycan array binding signal (z-score),Gal3S(b1-3)GlcNAc,-0.151
